# In PubChem BioAssay AID2147 (National Center for Advancing Translational Sciences (NCATS), 2009):
# The whole screen tested about 230,000 compounds, of which about 3,600 (1.6%) were called active. The inconclusive results got no clear call from the source; some entries with a clear call stand among them for comparison. The call rests on the fitted dose curve; in most records, active means well fitted inhibition curve with a large enough effect (not every such curve was filed as active); inconclusive means small, poorly fitted or top-dose-only effect, or another doubt; inactive means no such curve, though single readings can be large or run the other way. A potency beside an inconclusive call is a rough fit, not a confirmed value. Some compounds were tested as several samples or in several runs, with calls that do not always agree.
# Biological target: Lysine-specific demethylase 4E (Homo sapiens) (UniProt B2RXH2)
# Sequence of UniProt B2RXH2 (B2RXH2 whole entry, looked up, the tested form may be a part): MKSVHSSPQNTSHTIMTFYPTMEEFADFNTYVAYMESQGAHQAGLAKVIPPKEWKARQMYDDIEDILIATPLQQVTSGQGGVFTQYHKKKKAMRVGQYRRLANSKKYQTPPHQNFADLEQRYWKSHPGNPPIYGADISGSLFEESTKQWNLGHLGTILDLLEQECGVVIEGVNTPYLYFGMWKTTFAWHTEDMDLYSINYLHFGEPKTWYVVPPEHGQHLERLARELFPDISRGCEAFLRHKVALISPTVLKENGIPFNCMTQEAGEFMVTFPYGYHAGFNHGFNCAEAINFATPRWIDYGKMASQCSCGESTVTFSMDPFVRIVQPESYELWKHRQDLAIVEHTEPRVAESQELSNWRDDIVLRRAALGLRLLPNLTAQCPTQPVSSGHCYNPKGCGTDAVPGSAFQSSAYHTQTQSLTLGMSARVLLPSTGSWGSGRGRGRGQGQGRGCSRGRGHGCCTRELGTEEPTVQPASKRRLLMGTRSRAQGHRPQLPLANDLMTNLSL
# Experiment: qHTS Assay for Inhibitors of Human Jumonji Domain Containing 2E (JMJD2E)
# Settings: JMJD2E catalytic domain, FDH-coupled NADH fluorescence (FDH is formaldehyde dehydrogenase); series mostly up to 57.1 µM
# Further: nearly all actives have a fitted effect of over 50% in size.
# Potency means the concentration at half of the fitted maximal effect; tags describe the fitted curve by direction and shape.
row,Compound,Potency
1,CN1CCN(Cc2ccc(Br)s2)CC1,"inconclusive: 31.6 µM [inhibitor, single point]"
2,NN=C(N)N,"inconclusive: 35.5 µM [inhibitor, single point]"
3,CCc1ccc(-n2c(O)c(/C=N/NC(=O)c3ccncc3)c(=O)[nH]c2=O)cc1,active: 11.2 µM
4,COc1cc(OC)c(OC)cc1C=O,"inconclusive: 39.8 µM [inhibitor, single point]"
5,c1ccc(C(c2ccccc2)N2CCN(c3ccc4ccccc4n3)CC2)cc1,"inconclusive: 31.6 µM [inhibitor, partial curve]"
6,O=C(c1ccc2c(c1)OCO2)C1CCCN(CC2CCCCC2)C1 (stereo unspecified),"inconclusive: 17.8 µM [inhibitor, single point]"
7,COc1cccc(CNC(=O)CSc2ccc(-c3ccco3)nn2)c1,"inconclusive: 25.1 µM [inhibitor, single point]"
8,COc1ccc(CCNCc2ccc(F)cc2)cc1OC,inactive
9,O=C(O)[C@@H]1C[C@H]2C[C@@H](CP(=O)(O)O)CC[C@H]2CN1,"inconclusive: 39.8 µM [inhibitor, single point]"
10,CCC(C)NC(=O)c1c(N)n(CC2CCCO2)c2nc3ccccc3nc12 (stereo unspecified),"inconclusive: 31.6 µM [inhibitor, partial curve]"
11,CCC1CN2CCC1CC2C(O)c1ccnc2ccc(OC)cc12 (stereo unspecified),"inconclusive: 22.4 µM [inhibitor, partial curve]"
12,CCCCOC(=O)COc1cc(C)cc2oc(=O)c3c(c12)CCC3,"inconclusive: 3.16 µM [inhibitor, full curve]"
13,Cc1cccc(OP(=O)(NCc2ccccc2)Oc2cccc(C)c2)c1,inactive
14,NC(CC(=O)O)C1CCCCC1 (stereo unspecified),inactive
15,COc1ccc(OCC(=O)N2CCN(Cc3c[nH]c4ccccc34)CC2)cc1,inactive
16,N#CC1=C(N)Oc2n[nH]c(-c3cccs3)c2C1c1ccco1 (stereo unspecified),"inconclusive: 20 µM [inhibitor, partial curve]"
17,COc1ccc(-c2nc3ccccc3c(=O)o2)cc1,active: 25.1 µM
18,COc1ccc(CCNC(=O)c2c(N)n(CCN3CCOCC3)c3nc4ccccc4nc23)cc1,"inconclusive: 28.2 µM [inhibitor, partial curve]"
19,CN1C[C@@H](C(=O)N[C@@]2(C)O[C@]3(O)C4CCCN4C(=O)[C@@H](Cc4ccccc4)N3C2=O)C=C2c3cccc4[nH]cc(c34)C[C@@H]21 (stereo partly specified),"inconclusive: 31.6 µM [inhibitor, partial curve]"
20,O=C(c1cc2ccccc2oc1=O)N1CCC2(CC1)OCCO2,"inconclusive: 39.8 µM [inhibitor, single point]"
21,COC(=O)C(C)Oc1cc(C)cc2oc(=O)c3c(c12)CCCC3 (stereo unspecified),"inconclusive: 28.2 µM [inhibitor, partial curve]"
22,O=[N+]([O-])c1cccc(C2N3CCCN23)c1 (stereo unspecified),inactive
23,COc1ccc(N2C(=O)NC(=O)/C(=C\c3ccc([N+](=O)[O-])s3)C2=O)cc1,active: 25.1 µM
24,CCN(CC)CCNC(=O)c1c(O)c2ccccc2n(Cc2ccccc2)c1=O,"inconclusive: 39.8 µM [inhibitor, single point]"

row,Compound,Potency
1,COc1ccc(N2C(=O)/C(=C/c3cc(C)n(-c4ccc(C)cn4)c3C)C(=O)NC2=S)c(OC)c1,"inconclusive: 31.6 µM [inhibitor, single point]"
2,CC(=O)OC1C2C(OC(=O)Cc3ccccc3)C(C)CC2(OC(C)=O)C(=O)/C(C)=C/C2C(CC[C@@]13CO3)C2(C)C (stereo partly specified),"inconclusive: 39.8 µM [inhibitor, single point]"
3,S=c1[nH]nc(-c2ccco2)n1Cc1ccccc1,"inconclusive: 35.5 µM [inhibitor, single point]"
4,COc1ccc(CCn2c(O)c(/C=N/NC(=O)c3ccncc3)c(=O)[nH]c2=O)cc1OC,active: 10 µM
5,CN(C)CCC=C1c2ccccc2CCc2ccccc21,"inconclusive: 7.94 µM [inhibitor, full curve, poor fit]"
6,CC(C)[C@H](CO)Nc1nc(Nc2cccc(Cl)c2)c2ncn(C(C)C)c2n1,"inconclusive: 31.6 µM [inhibitor, partial curve]"
7,CCCCN1C(=O)NC(=O)/C(=C/c2cnc(SC)nc2)C1=O,active: 25.1 µM
8,NC1CCc2cc(O)c(O)cc2C1 (stereo unspecified),"inconclusive: 22.4 µM [inhibitor, single point]"
9,CC(N)Cc1ccccc1Sc1ccc(O)cc1 (stereo unspecified),inactive
10,CC1CC(O)[C@]2(O)[C@]13CC(=O)OC[C@@]2(C)[C@@](C)(O)C(=O)C3 (stereo partly specified),inactive
11,COc1ccc(N2C(=O)CC(N3CCC(n4c(=O)[nH]c5ccccc54)CC3)C2=O)cc1 (stereo unspecified),inactive
12,C=CCNC(=O)c1c(N)n(CCN2CCOCC2)c2nc3ccccc3nc12,"inconclusive: 28.2 µM [inhibitor, partial curve]"
13,Cc1ccc(N2C(=O)NC(=O)/C(=C/c3cnc(-c4ccccc4)nc3)C2=O)cc1C,active: 12.6 µM
14,O=C(c1c[nH]c2ccc(S(=O)(=O)N3CCC4(CC3)OCCO4)cc2c1=O)N1CCC2(CC1)OCCO2,"inconclusive: 31.6 µM [inhibitor, partial curve]"
15,Cc1cc(OC(=O)N(C)C)nc2c1c(C)nn2C,"inconclusive: 31.6 µM [inhibitor, partial curve]"
16,CN(C)CCNC(=O)c1cccn(Cc2cccc(C(F)(F)F)c2)c1=O,"inconclusive: 31.6 µM [inhibitor, partial curve]"
17,CC(C)OCCCNC(=O)c1c(N)n(Cc2cccs2)c2nc3ccccc3nc12,"inconclusive: 28.2 µM [inhibitor, partial curve]"
18,CN1C(=O)C(=Cc2ccc(OCCN(C)c3ccccn3)cc2)C(=O)N(C)C1=O,"inconclusive: 39.8 µM [inhibitor, single point]"
19,O=[N+]([O-])c1ccccc1CNCCc1ccc(F)cc1,"inconclusive: 39.8 µM [inhibitor, partial curve, poor fit]"
20,CN1C(=O)/C(=C\c2ccc(N3CCCCC3)o2)C(=O)NC1=S,inactive
21,CCCCC/C=C\C/C=C\C/C=C\C/C=C\CCCC(=O)NCC(=O)O,active: 22.4 µM
22,C=C1C([C@@]2(C)C(OC(C)=O)CC(=O)O[C@@](C)(COC(C)=O)C2CC(=O)OC)C(OC=O)C(OC(=O)C(OC(C)=O)C(C)CC)[C@]2(C)C(c3ccoc3)CC(=O)C12O (stereo partly specified),inactive
23,CC(C)Oc1ccc(C2C(C#N)=C(N)Oc3c2c(=O)oc2ccccc32)cc1 (stereo unspecified),"inconclusive: 39.8 µM [inhibitor, single point]"
24,O=C(Nc1cccc(OC(=O)N2CCOCC2)c1)N1CCOCC1,inactive

row,Compound,Potency
1,CCN(CC)S(=O)(=O)c1ccc(C)c(NCC(=O)Nc2ccc(C#N)c(Cl)c2)c1,"inconclusive: 39.8 µM [inhibitor, single point]"
2,O=C(Cc1ccccc1)N1CCN(Cc2ccc([N+](=O)[O-])cc2)CC1,"inconclusive: 39.8 µM [inhibitor, single point]"
3,S=C1CN=C(c2ccccc2)c2cc(Cl)ccc2N1,inactive
4,C=CCN1CC[C@@]2(C)c3cc(O)ccc3CC1[C@@H]2C,inactive
5,COC(=O)CCC(=O)Nc1sc(Cc2ccccc2)c(C)c1C(N)=O,"inconclusive: 20 µM [inhibitor, partial curve, poor fit]"
6,O=C(N/N=C/c1c(O)n(CCc2ccccc2)c(=O)[nH]c1=O)c1ccccc1O,active: 28.2 µM
7,O=C1NC(=O)C2(Cc3ccccc3N3CCCC32)C(=O)N1c1ccccc1 (stereo unspecified),"inconclusive: 39.8 µM [inhibitor, single point]"
8,C[C@H]1COC2=C1C(=O)C(=O)c1c2ccc2c1CCCC2(C)C,"inconclusive: 17.8 µM [inhibitor, single point]"
9,NC(=S)c1cn(C2OC(CO)C(O)C2O)c2ncnc(N)c12 (stereo unspecified),inactive
10,Clc1cccc(Cl)c1CN1CCN(c2ccccc2)CC1,"inconclusive: 25.1 µM [inhibitor, single point]"
11,O=c1c2ccccc2nc2n1CCS2(=O)=O,"inconclusive: 35.5 µM [inhibitor, single point]"
12,O=c1[nH]c(=S)n(Cc2ccco2)c(O)c1C=NCc1cccs1,inactive
13,O=c1[nH]c(=O)n(Cc2ccco2)c(O)c1C=NCc1ccco1,inactive
14,COc1ccc(-n2c(=O)[nH]c3ccccc3c2=O)c(OC)c1,inactive
15,CCC1(C)CC(=O)NC(=O)C1,"inconclusive: 22.4 µM [inhibitor, single point]"
16,CC(C)Cn1cc(C(=O)N2CCC3(CC2)OCCO3)c2c3ccccc3n(C)c2c1=O,"inconclusive: 31.6 µM [inhibitor, partial curve]"
17,NNc1n[nH]c(=S)n1N,"inconclusive: 0.562 µM [inhibitor, full curve, poor fit]"
18,CCN(CC)C(=O)c1c(C)[nH]c(=S)c(C#N)c1-c1ccco1,"inconclusive: 3.55 µM [inhibitor, full curve]"
19,O=C(O)c1cc[c]([Hg][Cl])cc1,"inconclusive: 14.1 µM [inhibitor, partial curve]"
20,COc1ccc(N/N=C/c2c(O)n(-c3ccc(C)c(C)c3)c(=O)[nH]c2=O)cc1,"inconclusive: 28.2 µM [inhibitor, partial curve]"
21,CN1C(=O)C(Cc2cccc3ccccc23)C(=O)N(C)C1=O,inactive
22,CCSc1nnc([C@@H](N)Cc2c[nH]c3ccccc23)o1,"inconclusive: 10 µM [inhibitor, partial curve]"
23,CCCCCn1c(=O)c(C(=O)NCc2ccccn2)c(O)c2ccccc21,"inconclusive: 25.1 µM [inhibitor, single point]"
